Source: the RNAGym collection of RNA variant scans (doi:10.7554/elife.90254)
The source gives no read counts; variants with many changes may rest on few reads.

B1: LINE1-mini (parent)
chain: GGCAGAGCUCAACACAGCGUGGCAAAGUGGCUGUGGCUAGACUGCC

Variants of: B1
Experiment: self-cleavage, relative activity (ratio to wild type); higher = more cleavage; in vitro, sequencing; the parent is a self-cleaving ribozyme

**Q.** For A25U G35U A39C, which self-cleavage is on record?
**A.** Its self-cleavage is 0.06.

**Q.** For C3A C8A A14G U32A U43C, which self-cleavage is on record?
**A.** Its self-cleavage is 0.29.

**Q.** Which self-cleavage does the source give for G22A G33U U43A here?
**A.** The self-cleavage was 0.12.

**Q.** Which self-cleavage does the source give for C3G C8U U9G C10U U20G here?
**A.** Its self-cleavage is 0.04.

**Q.** For G5C G22U U34G A41G, which self-cleavage is on record?
**A.** Its self-cleavage is 0.

**Q.** Which self-cleavage does the source give for G5A U9A G17A G21C C23G A39G C45G here?
**A.** The self-cleavage was 0.08.

**Q.** For A6G A11C A12U C42U G44A, which self-cleavage is on record?
**A.** Its self-cleavage is 0.05.

**Q.** For U9C G21A A25C U32A, which self-cleavage is on record?
**A.** Its self-cleavage is 0.

**Q.** Which self-cleavage does the source give for A4U U28C G30C C31U A39U here?
**A.** The self-cleavage was 0.15.

**Q.** Which self-cleavage does the source give for C10G G35A G36U here?
**A.** The self-cleavage was 0.02.

**Q.** With G1A U9A C23A G29C U34A as the variant, how does the self-cleavage read?
**A.** The self-cleavage was 0.64.

**Q.** For G7C G21U U28C U32A G33A, which self-cleavage is on record?
**A.** The self-cleavage was 0.05.

**Q.** For G7C A16C G29U G44C, which self-cleavage is on record?
**A.** Its self-cleavage is 0.03.

**Q.** For C3G A4U A41U, which self-cleavage is on record?
**A.** The self-cleavage was 0.08.

**Q.** For A12C A14G G27A G30C U38C A39U G44U, which self-cleavage is on record?
**A.** The self-cleavage was 0.

**Q.** With C15U G36U C37U A41U G44A as the variant, how does the self-cleavage read?
**A.** The self-cleavage was 0.03.

**Q.** For G2U A6C G22U C37A, which self-cleavage is on record?
**A.** Its self-cleavage is 0.02.

**Q.** With G1C C8U C10G G21C G29A G35C as the variant, how does the self-cleavage read?
**A.** The self-cleavage was 0.01.

**Q.** With C3U A14G G40C as the variant, how does the self-cleavage read?
**A.** Its self-cleavage is 0.03.

**Q.** Which self-cleavage does the source give for G2U C23A G30A C46U here?
**A.** The self-cleavage was 0.11.

**Q.** With G5A G7U C18U G29A as the variant, how does the self-cleavage read?
**A.** The self-cleavage was 0.09.

**Q.** With G2A G5C G7U U32A as the variant, how does the self-cleavage read?
**A.** Its self-cleavage is 0.17.

**Q.** With G2A A25G A39U as the variant, how does the self-cleavage read?
**A.** Its self-cleavage is 0.67.

**Q.** For A6G G19U U28G, which self-cleavage is on record?
**A.** The self-cleavage was 0.05.

**Q.** Which self-cleavage does the source give for C3A C10A G21U here?
**A.** Its self-cleavage is 0.12.

**Q.** Which self-cleavage does the source give for U9C A16U C18U G29C here?
**A.** Its self-cleavage is 0.03.

**Q.** For C8U G30C C46G, which self-cleavage is on record?
**A.** Its self-cleavage is 0.01.

**Q.** For A11G G19A C31U U34C G35C U38G A39U, which self-cleavage is on record?
**A.** Its self-cleavage is 0.02.

**Q.** For U9A C10U U28A, which self-cleavage is on record?
**A.** The self-cleavage was 0.1.

**Q.** For G7U A12C C15U G29U C31A, which self-cleavage is on record?
**A.** The self-cleavage was 0.02.

**Q.** For G2C A14G U20C C45U, which self-cleavage is on record?
**A.** Its self-cleavage is 0.03.

**Q.** Which self-cleavage does the source give for G7A C37U C45U here?
**A.** Its self-cleavage is 0.02.

**Q.** Which self-cleavage does the source give for G21U A24G U43C here?
**A.** Its self-cleavage is 0.2.

**Q.** For A14C G17A G35U, which self-cleavage is on record?
**A.** Its self-cleavage is 0.05.

**Q.** Which self-cleavage does the source give for A16G U28A A41C here?
**A.** Its self-cleavage is 0.09.

**Q.** With G2U U20G C23A C46U as the variant, how does the self-cleavage read?
**A.** Its self-cleavage is 0.03.

**Q.** Which self-cleavage does the source give for C3G U9G C23U A25U here?
**A.** The self-cleavage was 0.29.

**Q.** For G2C C13G C15U, which self-cleavage is on record?
**A.** Its self-cleavage is 0.23.

**Q.** With G22U U32G U38A as the variant, how does the self-cleavage read?
**A.** The self-cleavage was 0.15.

**Q.** Which self-cleavage does the source give for A12G C15G G22A A25C C31G C45A here?
**A.** The self-cleavage was 0.

**Q.** For C3G A11G G22C, which self-cleavage is on record?
**A.** The self-cleavage was 0.

**Q.** For G1U C18A G29U U32A, which self-cleavage is on record?
**A.** Its self-cleavage is 0.02.

**Q.** For C13U G29A G33U A39U, which self-cleavage is on record?
**A.** The self-cleavage was 0.02.

**Q.** For A16C G19A U20G G35U C46A, which self-cleavage is on record?
**A.** Its self-cleavage is 0.05.

**Q.** Which self-cleavage does the source give for A6C C8U C10A here?
**A.** Its self-cleavage is 0.02.

**Q.** With U9A A16G A26G as the variant, how does the self-cleavage read?
**A.** Its self-cleavage is 0.09.

**Q.** For A12C A16C G27C C37U A41C, which self-cleavage is on record?
**A.** The self-cleavage was 0.

**Q.** With A6U C13G C31A as the variant, how does the self-cleavage read?
**A.** The self-cleavage was 0.17.

**Q.** With A11C A12U G17C U38G G40C as the variant, how does the self-cleavage read?
**A.** Its self-cleavage is 0.01.

**Q.** With G5C U38G C46A as the variant, how does the self-cleavage read?
**A.** Its self-cleavage is 0.02.

**Q.** For G2C C13A A26U, which self-cleavage is on record?
**A.** Its self-cleavage is 0.01.

**Q.** Which self-cleavage does the source give for A6C G21C G29C here?
**A.** The self-cleavage was 0.45.

**Q.** For G5U C10A G19U G36C G44U C46A, which self-cleavage is on record?
**A.** The self-cleavage was 0.

**Q.** With C3U A12U G36A G40C as the variant, how does the self-cleavage read?
**A.** Its self-cleavage is 0.12.

**Q.** With G2U G22A U43G as the variant, how does the self-cleavage read?
**A.** The self-cleavage was 0.

**Q.** Which self-cleavage does the source give for A4G G19A U32G U38C A41G here?
**A.** The self-cleavage was 0.

**Q.** With G7A U9G C46A as the variant, how does the self-cleavage read?
**A.** Its self-cleavage is 0.07.

**Q.** With A4G C13G C37U C45U as the variant, how does the self-cleavage read?
**A.** Its self-cleavage is 0.15.

**Q.** For A6U A16G C31G, which self-cleavage is on record?
**A.** Its self-cleavage is 0.02.

**Q.** Which self-cleavage does the source give for U20G U28G G35U here?
**A.** Its self-cleavage is 0.02.

**Q.** Which self-cleavage does the source give for U20G G29C U34C here?
**A.** Its self-cleavage is 0.09.

**Q.** With C10A G17C A25G as the variant, how does the self-cleavage read?
**A.** The self-cleavage was 0.03.

**Q.** Which self-cleavage does the source give for G5A C13A A26G G29U G30U A39G here?
**A.** The self-cleavage was 0.09.

**Q.** With G5C U9G C42U as the variant, how does the self-cleavage read?
**A.** The self-cleavage was 0.04.

**Q.** With G1C A14G G30C U34A as the variant, how does the self-cleavage read?
**A.** Its self-cleavage is 0.

**Q.** With A11C A41C C46A as the variant, how does the self-cleavage read?
**A.** The self-cleavage was 0.03.

**Q.** Which self-cleavage does the source give for A12G C31A C42G here?
**A.** The self-cleavage was 0.12.

**Q.** With G2C G17C C23U as the variant, how does the self-cleavage read?
**A.** Its self-cleavage is 0.1.

**Q.** Which self-cleavage does the source give for A16U C18U G22U C45U here?
**A.** Its self-cleavage is 0.03.

**Q.** Which self-cleavage does the source give for C10A U32G C45G here?
**A.** The self-cleavage was 0.02.

**Q.** Which self-cleavage does the source give for A6U C8G C23A here?
**A.** The self-cleavage was 0.01.

**Q.** With C10A G22C A26U U28C as the variant, how does the self-cleavage read?
**A.** The self-cleavage was 0.02.

**Q.** For G2U G22A G44A, which self-cleavage is on record?
**A.** Its self-cleavage is 0.02.

**Q.** Which self-cleavage does the source give for G7U G30A G33U G40C here?
**A.** Its self-cleavage is 0.13.

**Q.** With C13U U28C G33C as the variant, how does the self-cleavage read?
**A.** Its self-cleavage is 0.01.

**Q.** Which self-cleavage does the source give for C10U C31A G33U here?
**A.** Its self-cleavage is 0.03.

**Q.** With G1C U9C A24U G33A G44A as the variant, how does the self-cleavage read?
**A.** The self-cleavage was 0.03.

**Q.** With A4G G5U G30A as the variant, how does the self-cleavage read?
**A.** Its self-cleavage is 0.03.

**Q.** With G1U C3G G35A G40C as the variant, how does the self-cleavage read?
**A.** Its self-cleavage is 0.08.

**Q.** For G22U G29C C46A, which self-cleavage is on record?
**A.** Its self-cleavage is 1.22.

**Q.** With C3G C10U C42U as the variant, how does the self-cleavage read?
**A.** The self-cleavage was 1.53.

**Q.** For C13A G22A G40A, which self-cleavage is on record?
**A.** Its self-cleavage is 0.08.

**Q.** For G21A A25G G36U C42G, which self-cleavage is on record?
**A.** Its self-cleavage is 0.
